The BET-seq Pho4 binding data (Le et al. 2018)
The list shows a part of the results. The energies were worked out here from pooled read counts, against the library average; single values are noisy.

Each sequence was assayed against T1, Pho4 (S. cerevisiae) (UniProt P07270) (assay: relative binding free energy (BET-seq); higher = weaker binding). Conditions: reference: library average.
T1 sequence: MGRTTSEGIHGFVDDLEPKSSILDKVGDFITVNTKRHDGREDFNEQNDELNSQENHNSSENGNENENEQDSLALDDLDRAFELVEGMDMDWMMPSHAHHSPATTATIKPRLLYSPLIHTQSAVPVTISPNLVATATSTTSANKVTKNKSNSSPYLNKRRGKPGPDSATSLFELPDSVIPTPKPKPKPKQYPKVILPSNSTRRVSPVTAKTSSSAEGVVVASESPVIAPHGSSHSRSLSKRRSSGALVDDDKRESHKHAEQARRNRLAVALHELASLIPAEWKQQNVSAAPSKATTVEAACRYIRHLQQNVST

Sequence | relative binding free energy
TGGGGCACGTGGGTGA | -0.21 kcal/mol
TGGGACACGTGGCCGT | -0.14 kcal/mol
AGAGGCACGTGCTGTA | -0.12 kcal/mol
TTGTTCACGTGCTGTG | 0.19 kcal/mol
AGGTGCACGTGCGCGT | -0.29 kcal/mol
AAAGTCACGTGGTATT | 0.15 kcal/mol
TACAACACGTGTGGTT | 0.13 kcal/mol
AGATACACGTGAGTTG | 0.01 kcal/mol
AGGTGCACGTGGGAGC | -0.16 kcal/mol
ATGGTCACGTGGCAGA | 0.07 kcal/mol
CGGAACACGTGTGGTA | -0.03 kcal/mol
AGTTTCACGTGTACAT | 0.18 kcal/mol
AGGAGCACGTGATGTA | 0.05 kcal/mol
AGGATCACGTGTGGGC | 0.21 kcal/mol
CTAGCCACGTGGGGAG | -0.17 kcal/mol
ATGTTCACGTGGAGTC | 0.36 kcal/mol
GGAATCACGTGGTGTT | 0.21 kcal/mol
GTGAGCACGTGGGAGT | -0.02 kcal/mol
GGTTACACGTGTTATT | 0.21 kcal/mol
TGGCGCACGTGTTGGG | -0.03 kcal/mol
TAGCGCACGTGTAGTT | 0.05 kcal/mol
TATTTCACGTGGAACT | 0.46 kcal/mol
TCGGGCACGTGGTTTA | 0.01 kcal/mol

Sequence | relative binding free energy
TTTGGCACGTGAGGTT | 0.12 kcal/mol
ACTTTCACGTGGAGAG | 0.35 kcal/mol
ATTGGCACGTGCGGCA | -0.1 kcal/mol
GGCTTCACGTGATCGG | 0.36 kcal/mol
TGGACCACGTGGTTAG | -0.06 kcal/mol
GTGGGCACGTGCATGC | -0.2 kcal/mol
TCATGCACGTGGTTGG | -0.11 kcal/mol
TTACTCACGTGTATAG | 0.21 kcal/mol
TTTGGCACGTGAACAT | 0.13 kcal/mol
CGTCGCACGTGTGCGT | 0.09 kcal/mol
TTCGACACGTGGAGTT | 0.01 kcal/mol
TGTGACACGTGCCGTG | -0.04 kcal/mol
GTTTGCACGTGTGGTG | 0.16 kcal/mol
ATCGGCACGTGCTGGG | -0.13 kcal/mol
AGTGTCACGTGAAGTT | 0.39 kcal/mol
TTGGGCACGTGGGCGT | -0.17 kcal/mol
GGGTTCACGTGGTACT | 0.43 kcal/mol
ATTGGCACGTGCTTGA | -0.08 kcal/mol
TCTGACACGTGTTTTG | -0.01 kcal/mol
TGTTTCACGTGTGCAA | 0.22 kcal/mol
TAATGCACGTGGATGA | 0.05 kcal/mol
AAATTCACGTGTCGTT | 0.24 kcal/mol
GGGATCACGTGGGACG | 0.05 kcal/mol

Sequence | relative binding free energy
AGATGCACGTGGGGAC | -0.2 kcal/mol
CACGGCACGTGGTGGT | -0.29 kcal/mol
TATATCACGTGAGCTG | 0.2 kcal/mol
ATTAGCACGTGTAAGC | 0.15 kcal/mol
TTATACACGTGGCGGG | -0.09 kcal/mol
TATCTCACGTGTAAGG | 0.3 kcal/mol
TCTGGCACGTGTGATG | 0.15 kcal/mol
GTAGCCACGTGGGGTG | -0.15 kcal/mol
TGCTTCACGTGCAGGT | 0.21 kcal/mol
CTGTGCACGTGGGTGT | -0.24 kcal/mol
CGAGGCACGTGGTCGG | -0.13 kcal/mol
GGCGGCACGTGTGGGT | -0.01 kcal/mol
TTAATCACGTGGGCAT | -0.01 kcal/mol
GGGAGCACGTGTGGGC | 0.03 kcal/mol
GACGACACGTGTGGGG | 0.11 kcal/mol
AGATGCACGTGATTAA | 0.16 kcal/mol
TTTTACACGTGGCCGT | 0.11 kcal/mol
GGCGACACGTGGGGAG | 0.15 kcal/mol
TAGAACACGTGGGATA | -0.04 kcal/mol
AATTACACGTGTGTCT | 0.21 kcal/mol
TTTATCACGTGATCTG | 0.16 kcal/mol
TTATTCACGTGGTAGG | 0.18 kcal/mol
AGGTACACGTGTTGCT | 0.09 kcal/mol

Sequence | relative binding free energy
AGGATCACGTGGGCAG | 0.04 kcal/mol
CTGTGCACGTGGTAAG | -0.16 kcal/mol
TATGGCACGTGGGTTA | -0.2 kcal/mol
ACTTGCACGTGAAGTG | 0.34 kcal/mol
ATCAGCACGTGTTGTT | -0.04 kcal/mol
GTCATCACGTGTGTGA | 0.1 kcal/mol
GGGGACACGTGTATGT | 0.03 kcal/mol
AGGTTCACGTGTTATA | 0.17 kcal/mol
GTGGTCACGTGTCTAT | 0.19 kcal/mol
ACTATCACGTGTATGT | 0.12 kcal/mol
ATTAGCACGTGTTAAG | -0.02 kcal/mol
GGGTGCACGTGACTGC | 0.21 kcal/mol
AGCTCCACGTGGGGGT | -0.21 kcal/mol
GAAAGCACGTGGGGCG | -0.13 kcal/mol
TTTGACACGTGGTGGG | 0.02 kcal/mol
TATTGCACGTGATAGC | 0.11 kcal/mol
TGTCACACGTGGGGAC | 0 kcal/mol
TTAGCCACGTGTTTGA | -0.11 kcal/mol
GTACGCACGTGTAAGG | -0.06 kcal/mol
AGTGGCACGTGAAATT | 0.29 kcal/mol
GAAGTCACGTGAGGTC | 0.42 kcal/mol
GGTGTCACGTGGGGCT | 0.02 kcal/mol
CCGGGCACGTGTTGTG | -0.12 kcal/mol

Sequence | relative binding free energy
CTTTGCACGTGATTGA | 0 kcal/mol
GTTTACACGTGGAATG | 0.09 kcal/mol
ATGTTCACGTGTGGTC | 0.23 kcal/mol
TGCACCACGTGGGTTG | -0.29 kcal/mol
GAGTACACGTGTAAGG | 0.12 kcal/mol
ATTTTCACGTGCTCTG | 0.18 kcal/mol
CATGACACGTGGGCGT | -0.08 kcal/mol
CACTACACGTGTTGTT | 0.18 kcal/mol
GAATGCACGTGTGGGA | 0.19 kcal/mol
TGCGGCACGTGGATTA | 0.06 kcal/mol
TTTAGCACGTGTCGAG | 0.03 kcal/mol
GATTTCACGTGGTGTC | 0.17 kcal/mol
ATTGACACGTGACTGG | 0.08 kcal/mol
TGTACCACGTGGGGGA | -0.19 kcal/mol
AGGGGCACGTGAACGT | 0 kcal/mol
TTTGCCACGTGAGGCG | 0 kcal/mol
GAATTCACGTGAGGTA | 0.4 kcal/mol
GGTGTCACGTGGCCCG | -0.02 kcal/mol
GTTTGCACGTGGCATA | -0.09 kcal/mol
TCTTTCACGTGGGTCG | 0.16 kcal/mol
TGGGCCACGTGTGATA | -0.01 kcal/mol
GTTTGCACGTGGGTAT | 0.03 kcal/mol
ATGTTCACGTGATTTA | 0.43 kcal/mol
